The campaign covered roughly 270,000 compounds. About 5,800 (2.1%) were called active. Roughly 16% stayed inconclusive and do not appear here. Calls come from the whole dose curve; as a rule, active = well fitted inhibition curve with a large enough effect; inconclusive = small, poorly fitted or top-dose-only effect; inactive = flat fitted curve, though single readings scatter. Only a part is listed here, and it is no random draw. Some compounds were tested as several samples or in several runs, with calls that do not always agree.
Biological target: Microtubule-associated protein tau (Homo sapiens) (UniProt P10636)
Assay: qHTS for Inhibitors of Tau Fibril Formation, Thioflavin T Binding; note: nearly all actives have a fitted effect of over 55% in size
Conditions: recombinant tau K18 P301L (four-repeat tau fragment), heparin-induced fibrillization, ThT fluorescence; series mostly up to 57.4 µM; activity, negative = inhibition: at the top concentration
Procedure, shortened: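 Heparin-induced fibrillization of the P301L-mutant K18 repeat-domain fragment of human tau was followed by ThT binding in quantitative high-throughput format.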
% is set by controls: 0 for no effect and ±100 for the full control effect; potency is the fitted concentration of half-maximal effect.

Chain of UniProt P10636 (P10636 whole entry, looked up): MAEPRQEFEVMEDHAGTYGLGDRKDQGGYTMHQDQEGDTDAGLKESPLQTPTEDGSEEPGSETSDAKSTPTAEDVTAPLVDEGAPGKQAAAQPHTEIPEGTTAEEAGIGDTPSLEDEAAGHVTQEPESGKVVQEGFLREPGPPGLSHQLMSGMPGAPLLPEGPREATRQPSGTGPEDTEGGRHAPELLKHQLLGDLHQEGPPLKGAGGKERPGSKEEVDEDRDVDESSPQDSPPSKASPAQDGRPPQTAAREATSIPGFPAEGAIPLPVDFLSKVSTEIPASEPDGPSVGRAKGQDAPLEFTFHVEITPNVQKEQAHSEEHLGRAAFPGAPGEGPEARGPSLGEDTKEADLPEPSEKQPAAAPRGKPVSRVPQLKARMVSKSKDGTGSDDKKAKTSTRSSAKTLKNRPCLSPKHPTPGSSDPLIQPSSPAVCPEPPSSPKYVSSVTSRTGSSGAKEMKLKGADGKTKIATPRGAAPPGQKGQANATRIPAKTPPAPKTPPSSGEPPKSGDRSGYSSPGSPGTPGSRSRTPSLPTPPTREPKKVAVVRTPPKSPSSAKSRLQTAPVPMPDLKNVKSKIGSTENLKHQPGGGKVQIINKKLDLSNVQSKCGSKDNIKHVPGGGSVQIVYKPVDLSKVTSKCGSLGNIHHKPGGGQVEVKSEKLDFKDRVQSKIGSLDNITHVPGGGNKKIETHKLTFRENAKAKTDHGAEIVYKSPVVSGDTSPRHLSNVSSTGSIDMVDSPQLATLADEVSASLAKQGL

Row | SMILES | activity, negative = inhibition | Potency
1 | C=CC[C@H]1Cc2c(cccc2[N+](=O)[O-])[C@H](CC=C)N1 | inactive: -3.34% | 
2 | CC(C)C1=CC2=CC[C@H]3[C@](C)(C(=O)O)CCC[C@]3(C)C2CC1 (stereo partly specified) | inactive: -15.8% | 
3 | C#CCCCCCCCCCCCCCCCC(=O)O |  | inactive
4 | CCN(c1ccccc1)S(=O)(=O)c1nnc(NC(=O)c2ccccc2OC)s1 |  | active: 3.16 µM
5 | C=CCN1c2ccccc2[C@]23C[C@@H](C(=O)OC)N(C(=O)CC(C)C)C2=NC(C(=O)OC)=C(C(=O)OC)[C@H]13 | inactive: 0.924% [at 11.5 µM] | 
6 | CCCCC1=CC2=CC(=O)C(C)(OC(=O)CC)C(=O)C2=CN1Cc1ccc2c(c1)OCO2 (stereo unspecified) | inactive: -7.24% [at 11.5 µM] | 
7 | COc1ccc2nc(N3C(=O)/C(=C/c4ccc(Cl)cc4)NC3=S)sc2c1 |  | active: 1.12 µM
8 | CC(C)(S)[C@H](N)C(=O)O | inactive: -0.594% | 
9 | O=C1c2ccccc2CCC1CNCCc1ccc(O)cc1 (stereo unspecified) | inactive: -16.3% | 
10 | COc1ccc(Nc2nc3ccc(OC)cc3s2)cc1 |  | active: 12.6 µM
11 | Oc1ccc(/C(Cc2ccc3ccccc3n2)=N\Nc2ccccc2)c(O)c1 |  | active: 11.2 µM
12 | COC(=O)Cn1c(=O)c2c(n(Cc3ccccc3)c1=O)N/C(=C/c1ccc(Br)cc1)C2=O |  | active: 15.8 µM
13 | CC1=C(C(=O)O)N2C(=O)[C@@H](NC(=O)[C@H](N)c3ccccc3)[C@H]2SC1 | inactive: -18.2% | 
14 | CC1(OC(=O)C2CCCC2)C(=O)C=C2C=C(c3ccsc3)N(Cc3ccccc3)C=C2C1=O (stereo unspecified) | inactive: 2.55% [at 11.5 µM] | 
15 | COC(=O)CCCC1=CC2=CC(=O)C(C)(OC(=O)c3cccs3)C(=O)C2=CN1CCc1ccccn1 (stereo unspecified) | inactive: -8.84% [at 11.5 µM] | 
16 | CC(=O)C1=C(C)N(Cc2ccccc2)C(=O)N[C@H]1c1cccc(C(F)(F)F)c1 |  | inactive
17 | CCC1=C(OC(=O)N(CC)CC)N2C(=O)OC(=NCCc3c[nH]c4ccccc34)[C@]2(C)[C@H]2C1=CC[C@H]1C(=O)N(CC(=O)OC)C(=O)[C@H]12 | inactive: -9.55% | 
18 | Cn1sc(=O)c2cc(S(=O)(=O)NC3CC3)ccc21 |  | active: 12.6 µM

Row | SMILES | activity, negative = inhibition | Potency
19 | C[C@@H](C(=O)NCC1CC1)[C@H]1C[C@]1(C)[C@H](NC(=O)OCc1ccccc1)c1ccccc1 | inactive: -18.1% | 
20 | COc1ccc2c(c1)CC/C(=C\Nc1ccc3c(c1)OCO3)C2=O |  | active: 1.26 µM
21 | Cc1ccc(/C=C/C(=O)Nc2ccc(S(N)(=O)=O)cc2)o1 | inactive: -15.5% | 
22 | CC(/C=N\N1CCN(Cc2ccc(C)cc2)CC1)=C\c1ccccc1 | inactive: 1.16% | 
23 | CCC1(O)CC2CN(CCc3c([nH]c4ccccc34)[C@@](C(=O)OC)(c3cc4c(cc3OC)N(C=O)C3[C@]45CCN4CC=C[C@@](CC)([C@@H](OC(C)=O)[C@]3(O)C(=O)OC)[C@H]45)C2)C1 (stereo partly specified) | inactive: 3.92% | 
24 | CCc1c(C)sc(NC(=O)c2cc(-c3ccc(OC)c(OC)c3)on2)c1C#N | inactive: -6.95% | 
25 | COC(=O)C/C=C\[C@@H](C)[C@@H](/C=N\OC[C@@H]1O[C@H](c2ccccc2)C=C[C@@H]1Oc1ccc(OC)cc1)OC | inactive: -13.5% [at 11.5 µM] | 
26 | Cc1ccc(C(=O)N/C(=C\C=C\c2ccccc2)C(=O)NCc2ccco2)cc1 | inactive: -6.91% | 
27 | C=CCN1CCc2c(cc(O)c(O)c2Cl)C(c2ccccc2)C1 (stereo unspecified) |  | inactive
28 | CCOC(=O)C1=C[C@@]2(CC)CCCN3CCc4c(n1c1ccccc41)[C@H]32 | inactive: -6.82% | 
29 | CC1(C)[C@@H](O)CC[C@]2(C)[C@H]3C(=O)C=C4[C@@H]5C[C@@](C)(C(=O)O)CC[C@]5(C)CC[C@@]4(C)[C@]3(C)CC[C@@H]12 | inactive: -13.4% | 
30 | Oc1ccc([C@@H]2CNCCc3c2cc(O)c(O)c3Cl)cc1 | inactive: -25.1% | 
31 | CC1=NN(c2ccccc2)C(=O)/C1=C/c1ccc[nH]1 |  | active: 12.6 µM
32 | CC(=O)Nc1sc(N/N=C/c2ccc(N(C)C)cc2)nc1-c1ccc(C)cc1 |  | active: 15.8 µM
33 | COc1ccc(-n2c(CCC(=O)O)ccc2-c2ccccc2)cc1 | inactive: -6.66% | 
34 | CCO[C@H]1OC(C(=O)NC2CC2)=C[C@@H](c2ccccc2)[C@@H]1CCCO | inactive: 0.168% | 
35 | O=C(O)CCNc1cc2ccccc2cc1C(=O)O |  | active: 15.8 µM
36 | CN=C1S/C(=C\c2cn(CC(=O)OC)c3ccccc23)C(=O)N1C | inactive: -8.37% | 
